Source: PubChem BioAssay (NCI)
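The compound was tested at five concentrations on cells cultured in 96-well plates, with a 48-hour exposure period. Abbreviation: GI50, concentration required for 50% inhibition of growth. TGI is the concentration that stops growth completely.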

System: NCI-H322M lung
Assay: NCI-60 cell line screen, 48 h

| SMILES | GI50 [µM] | TGI [µM] |
| --- | --- | --- |
| COC1/C=C/OC2(C)Oc3c(C)c(O)c4c(O)c(c(/C=N/Nc5ccc([N+](=O)[O-])cc5[N+](=O)[O-])c(O)c4c3C2=O)NC(=O)C(C)=C/C=C/C(C)C(O)C(C)C(O)C(C)C(OC(C)=O)C1C (stereo unspecified) | 9.24 | 21.6 |
| O=C(O)CCC(NC(=O)c1ccc(Nc2nc3ccccc3nc2-c2cccs2)cc1)C(=O)O (stereo unspecified) | – | > 100 |
| CCCCCCCCCCCCCCNC(=O)CCC(NC(=O)c1ccc(N(C)Cc2cnc3nc(N)nc(N)c3n2)cc1)C(=O)NCCCCCCCCCCCCCC (stereo unspecified) | – | 68.1 |
| O=C1/C(=C\c2ccccc2)C(NC2CCCCC2)c2ccccc21 (stereo unspecified) | – | 25.9 |
| C=CC(=O)Nc1cc(Nc2ncc(C(=O)OC(C)C)c(-c3cn(C)c4ccccc34)n2)c(OC)cc1N(C)CCN(C)C | < 0.012 | 12 |
| CCC(C(=O)O)c1ccc(OC)cc1 (stereo unspecified) | – | > 100 |
| CC(=O)OC1CC(OC2C(O)CC(OC3C(O)CC(OC4CCC5(C)C(CCC6C5CC(O)C5(C)C(C7=CC(=O)OC7)CCC65O)C4)OC3C)OC2C)OC(C)C1OC1OC(CO)C(O)C(O)C1O (stereo unspecified) | – | 0.363 |
| COc1ccc(COCCOCc2nc(C#N)c(N)o2)cc1 | – | > 100 |
| Nn1c(-c2ccccc2)nn(C(=O)c2ccccc2)c1=O | – | > 100 |
| C[C@@H](NC(=O)[C@@H]1C[C@]1(C)COC(=O)c1cc([N+](=O)[O-])cc([N+](=O)[O-])c1)c1cccc2ccccc12 | – | > 100 |
| COc1cc2c(c(OC)c1OC)C(=O)[C@@H]1[C@H]2N1C(N)=O | – | > 100 |
| CCOC(=O)CSc1c(C(=O)OCC)c(=O)n(-c2ccccc2)c(=S)n1-c1ccccc1 | – | > 100 |
| Cc1c(C(=O)CC(=O)C(=O)Nc2ccccc2C(F)(F)F)[n+](=O)c2ccccc2n1[O-] | – | 67 |
| CC1CCc2nc[nH]c(=O)c21 (stereo unspecified) | > 100 | > 100 |
| COC(=O)c1c(C)cccc1C1CN=NC12Cc1ccc(C)cc1C2=O (stereo unspecified) | – | > 100 |
| COC(=O)c1ccccc1CC1Cc2ccc3c(c2C1=O)CCCC3 (stereo unspecified) | – | > 100 |
| COC(=O)CC[N+]1=CCC(c2ccccc2)(c2ccccc2)O1 | – | > 100 |
| CCN1CCN(Cc2ccc(NC(=O)c3cccc(C#Cc4cccc5[nH]nc(N)c45)c3)cc2C(F)(F)F)CC1 | 0.59 | 1.77 |
| O=C(CCc1nc(=S)[nH][nH]1)Nc1ccc(Cl)c(Cl)c1 | – | > 100 |
| Cc1ccccc1C(=O)N1CCc2c([nH]c3ccccc23)C1 | – | > 100 |
| Cc1ccsc1C(=S)Nc1ccc(Cl)c(/C=N/OC(C)(C)C)c1 | – | > 100 |
| O=C(N/N=C(/COc1ccc(Cl)cc1)N=Cc1ccncc1)c1ccncc1 | – | > 100 |
| COc1ccc2c(c1)sc1nc(-c3ccccc3)c(-c3cccc4ccccc34)n12 | > 22.7 | > 100 |
| Cc1cc(NS(=O)(=O)c2ccc(Nc3c4ccccc4nc4c(C(=O)N5CCN(CCOS(C)(=O)=O)CC5)cccc34)cc2)no1 | – | > 100 |

| SMILES | GI50 [µM] | TGI [µM] |
| --- | --- | --- |
| CCOC(=O)Cn1c(C(F)(F)F)nc2nc(Cl)c(Cl)nc21 | – | 51.4 |
| Nc1ccccc1C#C/C=C\C#Cc1ccccc1OC(F)(F)F | 9.09 | 82.2 |
| Cc1ccc(Cl)c2c(N=Nc3ccccc3[N+](=O)[O-])c(O)[nH]c12 | – | > 100 |
| Nc1nc(SCCc2ccccc2)c2[nH]cnc2n1 | – | > 100 |
| Nc1nc(Cl)cc(NCC2(CO)CC(=O)C2)n1 | – | > 100 |
| COc1cccc(C(=O)O[C@H]2[C@@H]3[C@]4(OC(C)=O)CO[C@@H]4C[C@H](O)[C@@]3(C)C(=O)[C@H](OC(C)=O)C3=C(C)[C@@H](OC(=O)[C@H](O)[C@@H](NC(=O)OC(C)(C)C)c4ccco4)C[C@]2(O)C3(C)C)c1 | – | > 37.5 |
| Cc1ccc(NC(=O)Nc2ccc(-c3cccnc3)cc2N2CCC(CO)CC2)cc1 | 3.77 | > 100 |
| COC(=O)/C=C1\S/C(=N\NC(=O)c2cc3ccc2/C=C\c2ccc(cc2)/C=C\3)N(c2ccccc2)C1=O | 2.02 | 4.75 |
| O=C(Nc1ccc(F)cc1)Nc1ccc(Cl)c([N+](=O)[O-])c1 | 3.31 | 12.1 |
| CCN(CC)CCSc1c2ccccc2nc2cc(NCC(=O)Nc3ccccc3-c3ccccc3NC(=O)CNc3ccc4c(SCCN(CC)CC)c5ccccc5nc4c3)ccc12 | – | > 100 |
| C=C(C)C(OC)C(O)CC1(C)CC(O)CC(C)(C2CCC3OC(C4(C)CCC(Br)C(C)(C)O4)CCC3(C)O2)O1 (stereo unspecified) | 15.1 | 33.2 |
| NC(=O)NO.O.O.O.O.O.O.O.O.O.O.O.[Ge].[Ge].[Ge].[Ge].[Ge].[O]=[Ge].[O]=[Ge].[O]=[Ge].[O]=[Ge].[O]=[Ge][OH] | – | > 100 |
| ClCCN1CCC2(CC1)SSC1(CCN(CCCl)CC1)S2 | – | > 100 |
| CN(C)N=Nc1ccc(C(N)=O)cc1 | – | > 100 |
| c1ccc(N=c2sc3ccccc3nc2Nc2ccccc2)cc1 | – | > 100 |
| O=C(CC(=O)c1cccc2ccccc12)C(=O)Nc1ccc(Cl)cc1 | – | > 100 |
| C=CCO[C@H]1CO[C@H]2[C@@H]1OC[C@@H]2Oc1ccc(Nc2ccnc(Nc3ccc(O[C@H]4CO[C@H]5[C@@H]4OC[C@@H]5OCC=C)c(Cl)c3)n2)cc1Cl | 1.58 | 2.96 |
| CC(=O)NC(Cc1ccc(O)cc1)C(=O)O (stereo unspecified) | – | > 100 |
| CCOC(=O)c1cn2c(n1)sc1cccc(C)c12 | – | > 100 |
| CC(=O)[CH-]C(=O)c1ccccc1.CC(=O)[CH-]C(=O)c1ccccc1.CN(C)c1ccc([O-])cc1.CN(C)c1ccc([O-])cc1.Cl.[Ti+4] | 25.8 | > 31.6 |
| O=C(Nc1nc2ccc([N+](=O)[O-])cc2s1)C(=O)C(C1OC(=O)c2ccccc21)[N+](=O)[O-] (stereo unspecified) | – | > 100 |
| C[N+](C)(C)CC(=O)N/N=C(/CC(=O)CC(C1=C(O)c2ccccc2OC1)c1ccccc1)C(=O)Nc1cccc(Cl)c1 (stereo unspecified) | – | > 100 |
| CCOC(=O)C1(C/C=C/CBr)Cc2ccccc2C1=O (stereo unspecified) | – | 30.8 |
| Nc1nc(-n2c(-c3ccccc3)nc3c(Br)cc(Br)cc3c2=O)nnc1-c1cccc(Cl)c1Cl | 2.48 | 8.22 |

| SMILES | GI50 [µM] | TGI [µM] |
| --- | --- | --- |
| CN1CCCCC1CCN1c2ccccc2Sc2ccc(Cl)cc21 (stereo unspecified) | 4 | 15.6 |
| COc1cc(C(=O)N(C(=S)OCc2ccccn2)c2ccccc2)cc(OC)c1OC | – | > 100 |
| CC1(C(=O)O)CCC[C@@]2(C)C1CC[C@@]1(C)c3cocc3CCC21 (stereo partly specified) | – | > 100 |
| Cc1ccc(-c2n[nH]c(=O)n2N2C(=O)c3ccccc3C2=O)cc1 | – | > 100 |
| CN1C(=O)C2CCC(=O)N2c2cccnc21 (stereo unspecified) | – | > 100 |
| O=C(Nc1ccccc1)c1c(O)[nH]c(=S)[nH]c1=O | – | 125 |
| Cc1ccc([N+](=O)[O-])cc1NC1=NCCO1 | – | > 100 |
| CC[C@@H]1CC[C@@H]2[C@H](CC[C@]3(C)[C@@H](OC(C)=O)CC[C@@H]23)[C@H]1COC(C)=O | – | > 100 |
| CN(C)C(=O)O/N=C1/C(c2c(O)[nH]c3ccccc23)=Nc2ccccc21 | – | 58.8 |
| C=C1C(=O)O[C@@H]2C(=O)[C@@H](C)CCC/C(C)=C/CC[C@@]3(C)O[C@@H]3C[C@@H]12 | – | > 100 |
| Cc1c(C(=O)C/C(=N/NC(=O)c2ccccc2O)C(=O)Nc2ccccc2C(C)C)[n+](=O)c2ccccc2n1[O-] | – | > 100 |
| Clc1ccccc1C(SCc1ccccc1)SCc1ccccc1 | – | > 100 |
| [N-]=[N+]=NC[C@H]1OCO[C@H](CN=[N+]=[N-])[C@@H](OCCOCCCl)[C@@H]1OCCOCCCl | – | > 100 |
| COc1ccc2cc(NC(=O)N/N=C\c3ccc([N+](=O)[O-])cc3)ccc2c1 | – | > 100 |
| Cc1cn2c(/C=N/N=C(N)N)c(-c3cccc([N+](=O)[O-])c3)nc2s1 | – | 3.28 |
| CC(C)=CCC\C(C)=C/C=C/C(C)=C\C=C\C(C)=C/C=C/C=C(C)\C=C\C=C(C)/C=C/C=C(/C)CCC=C(C)C | – | > 100 |
| C=C(C)C(=O)OC1C/C(CO)=C\C(O)C/C(C)=C/C2OC(=O)C(=C)C21 (stereo unspecified) | – | 83.6 |
| NC1=NCCC1(c1ccccc1)c1ccccn1 (stereo unspecified) | – | > 100 |
| O=[N+]([O-])c1ccc2c(c1)c(OCc1ccccc1)nn2Cc1ccccc1 | – | > 100 |
| CCC[CH2][Sn]([CH2]CCC)([S]c1cccc2cccnc12)[S]c1cccc2cccnc12 | 0.218 | 0.474 |
| C=CCOc1ccc2c(C)cc(=O)oc2c1C | – | > 100 |
| CNC(=S)OCCC(C)CCCC(C)C (stereo unspecified) | – | 36.5 |
| CC1(C)N=[N+]([O-])C1(C)C | – | > 100 |
| COc1cc2nc3n(c(=O)c2cc1OC)-c1ccc([N+](=O)[O-])cc1C3=O | – | > 100 |

| SMILES | GI50 [µM] | TGI [µM] |
| --- | --- | --- |
| CCCCCCCCCCCC(=O)OCCOCCOCCOCCOCCOCc1ccccc1 | – | > 100 |
| CC1(C)C(=O)/C=C\C(=O)C(C)(C)C2=CC=C(O2)C(C)(C)C(=O)/C=C\C(=O)C(C)(C)C2=CC=C1O2 | – | > 100 |
| CCN(CC)N=Nc1c(C(N)=O)n[nH]c1C | – | > 100 |
| COc1cccc(-c2cc(-c3cccc(NS(C)(=O)=O)c3)nc(N)c2C#N)c1O | 0.433 | > 100 |
| OCC1=CC(NC2CC(CO)C(O)C(O)C2O)C(O)C(O)C1O (stereo unspecified) | – | > 100 |
| COc1cc2ccnc([C@@H](OC(=O)c3ccccc3)c3ccc(OC)c(OC)c3OC)c2cc1OC | – | > 100 |
| CCCCCCc1cc2cc(-c3csc(CC#N)n3)c(=O)oc2cc1O | – | > 100 |
| OCCN(CCO)c1ncnc2c1ncn2Cc1ccc(CCl)cc1 | 15.6 | 35.5 |
| O=C1CCCSC(=O)N1Cc1ccccc1 | – | > 100 |
| COc1cc2c(cc1OCCCCN1CCN(CC(=O)Nc3ccc(Cl)cc3C(=O)c3ccccc3Cl)CC1)N=CC1CCCN1C2=O (stereo unspecified) | 0.433 | 0.972 |
| O=C1/C(=C/c2ccccc2)N=C2Sc3c(nc[nH]c3=O)N12 | – | > 100 |
| COc1cnc2c(c1)C(=O)c1c-2n(CCCN2CCOCC2)c(=O)c2cc(F)ccc12 | 0.435 | > 100 |
| OC1CSSC1Cn1cnc2c(Nc3ccc(OCc4cccc(F)c4)c(Cl)c3)ncnc21 (stereo unspecified) | 1.5 | 6.78 |
| O=C(CCc1nc(=S)[nH][nH]1)Nc1cc(Cl)c(Cl)cc1Cl | – | > 100 |
| O=C1/C(=C/c2ccc(O)c(O)c2)CCC/C1=C\c1ccc(O)c(O)c1 | – | 22.2 |
| CO/C(=N\N=C\c1ccc(C(F)(F)F)cc1)c1ccncc1 | – | > 10 |
| COC(=O)C1SC(SC)=NC12c1ccccc1Nc1ccccc12 (stereo unspecified) | – | > 100 |
| Cc1ccc2c(C)c3c(ccc4ccccc43)c[n+]2c1 | 16.6 | 53 |
| N#CC1(C#N)N[C@@H](c2ccsc2)[C@H]2C(=O)N(c3ccccc3)C(=O)[C@H]21 | – | > 100 |
| N#Cc1c(-c2ccccc2)/c(=C\Nc2cccc(C(F)(F)F)c2)c(=O)n2c1nc1ccccc12 | – | > 100 |
| CCOC(=O)c1csc(NC(=O)CN2CCOCC2)n1 | – | > 100 |
| CN(C)C(=S)N=C(Nc1ccccc1)Nc1ccccc1 | – | > 100 |
| Nc1ccccc1S(=O)(=O)N(CC(=O)O)c1ccccc1 | – | > 100 |
